{"source": "a collection of fitness landscapes (doi:10.1016/j.celrep.2020.107928)", "parents": {"B1": {"name": "Caulobacter ParB omega fusion; a variant is named by its letters at X, in order, B8GW30 (parent)", "chain": "MESVVVGEPGMSEGRRGLGRGLSALLGEVDAAPAQAPGEQLGGSREAPIEILQRNPDQPRRTFREEDLEDLSNSIREKGVLQPILVRPSPDTAGEYQIVAGERAWRAAQRAGLKTVPIMVRELDDLAVLEIGIIENVQRADLNVLEEALSYKVLMEKFERTQENIAQTIGKSXSHVANXMRLLXLPDEVQSYLVSGELTAXHARAIAAAADPVALAKQIIEGGLSVRETEALARKAPNLSAGKSKGGRPPRVKDTDTQALESDLSSVLGLDVSIDHRGSTGTLTITYATLEQLDDLCNRLTRGI"}}, "note": "Whole data set: some 81,000 sequences, median “one-hybrid fitness for binding NBS DNA” near -0.1, cut for the highest 2% near 0.36. The list shows a part of the results."}
{"variants_of": "B1", "assay": "one-hybrid fitness for binding NBS DNA (the Noc-binding site; scaled: cognate 1, non-cognate 0); higher = stronger binding", "settings": "with NBS DNA site", "method_in_brief": "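Selection: bacterial one-hybrid in E. coli USO, HIS3 reporter with the site 19 bp from the promoter, 48 hours at 37°C on M9-minus-histidine plus 0.1 mM IPTG and 5 mM 3-AT. Libraries were Caulobacter ParB with four randomised specificity codons, sequenced on Illumina before and after selection. Fitness is the rescaled log change in variant-to-wild-type read ratio, anchored to the cognate and non-cognate sites.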"}
{"variant": "AGGS", "one-hybrid fitness for binding NBS DNA": "≤ 0.2"}
{"variant": "SQEM", "one-hybrid fitness for binding NBS DNA": "≤ 0.2"}
{"variant": "CGKW", "one-hybrid fitness for binding NBS DNA": "≤ 0.2"}
{"variant": "GSAS", "one-hybrid fitness for binding NBS DNA": "≤ 0.2"}
{"variant": "PDPR", "one-hybrid fitness for binding NBS DNA": "≤ 0.2"}
{"variant": "ELYG", "one-hybrid fitness for binding NBS DNA": "≤ 0.2"}
{"variant": "PDVF", "one-hybrid fitness for binding NBS DNA": "≤ 0.2"}
{"variant": "KRFM", "one-hybrid fitness for binding NBS DNA": "≤ 0.2"}
{"variant": "AYER", "one-hybrid fitness for binding NBS DNA": "≤ 0.2"}
{"variant": "APTY", "one-hybrid fitness for binding NBS DNA": "≤ 0.2"}
{"variant": "KRDC", "one-hybrid fitness for binding NBS DNA": "≤ 0.2"}
{"variant": "LDRR", "one-hybrid fitness for binding NBS DNA": "≤ 0.2"}
{"variant": "QNRH", "one-hybrid fitness for binding NBS DNA": "≤ 0.2"}
{"variant": "PFYS", "one-hybrid fitness for binding NBS DNA": "≤ 0.2"}
{"variant": "SLSV", "one-hybrid fitness for binding NBS DNA": "≤ 0.2"}
{"variant": "NSVN", "one-hybrid fitness for binding NBS DNA": "≤ 0.2"}
{"variant": "FCKR", "one-hybrid fitness for binding NBS DNA": 0.392}
{"variant": "YHVW", "one-hybrid fitness for binding NBS DNA": "≤ 0.2"}
{"variant": "YYQV", "one-hybrid fitness for binding NBS DNA": "≤ 0.2"}
{"variant": "FPRC", "one-hybrid fitness for binding NBS DNA": "≤ 0.2"}
{"variant": "QGQL", "one-hybrid fitness for binding NBS DNA": "≤ 0.2"}
{"variant": "YCNG", "one-hybrid fitness for binding NBS DNA": "≤ 0.2"}
{"variant": "HARC", "one-hybrid fitness for binding NBS DNA": "≤ 0.2"}
{"variant": "RKES", "one-hybrid fitness for binding NBS DNA": 0.434}
{"variant": "RFEC", "one-hybrid fitness for binding NBS DNA": "≤ 0.2"}
{"variant": "AGKI", "one-hybrid fitness for binding NBS DNA": "≤ 0.2"}
{"variant": "PGDW", "one-hybrid fitness for binding NBS DNA": "≤ 0.2"}
{"variant": "DYHR", "one-hybrid fitness for binding NBS DNA": "≤ 0.2"}
{"variant": "PTYH", "one-hybrid fitness for binding NBS DNA": "≤ 0.2"}
{"variant": "QARN", "one-hybrid fitness for binding NBS DNA": 0.349}
{"variant": "HTGY", "one-hybrid fitness for binding NBS DNA": "≤ 0.2"}
{"variant": "MVFS", "one-hybrid fitness for binding NBS DNA": "≤ 0.2"}
{"variant": "YAPP", "one-hybrid fitness for binding NBS DNA": "≤ 0.2"}
{"variant": "VFTP", "one-hybrid fitness for binding NBS DNA": "≤ 0.2"}
{"variant": "RPMY", "one-hybrid fitness for binding NBS DNA": "≤ 0.2"}
{"variant": "SWHI", "one-hybrid fitness for binding NBS DNA": "≤ 0.2"}
{"variant": "VGHT", "one-hybrid fitness for binding NBS DNA": "≤ 0.2"}
{"variant": "MGVS", "one-hybrid fitness for binding NBS DNA": "≤ 0.2"}
{"variant": "GRIR", "one-hybrid fitness for binding NBS DNA": "≤ 0.2"}
{"variant": "PWSI", "one-hybrid fitness for binding NBS DNA": "≤ 0.2"}
{"variant": "ILIG", "one-hybrid fitness for binding NBS DNA": "≤ 0.2"}
{"variant": "GLNS", "one-hybrid fitness for binding NBS DNA": "≤ 0.2"}
{"variant": "ATVG", "one-hybrid fitness for binding NBS DNA": "≤ 0.2"}
{"variant": "PHDV", "one-hybrid fitness for binding NBS DNA": "≤ 0.2"}
{"variant": "QAVN", "one-hybrid fitness for binding NBS DNA": "≤ 0.2"}
{"variant": "PVDT", "one-hybrid fitness for binding NBS DNA": "≤ 0.2"}
{"variant": "QKHN", "one-hybrid fitness for binding NBS DNA": "≤ 0.2"}
{"variant": "YYHN", "one-hybrid fitness for binding NBS DNA": "≤ 0.2"}
{"variant": "QCNF", "one-hybrid fitness for binding NBS DNA": "≤ 0.2"}
{"variant": "CRKY", "one-hybrid fitness for binding NBS DNA": "≤ 0.2"}
{"variant": "DALA", "one-hybrid fitness for binding NBS DNA": "≤ 0.2"}
{"variant": "MSPG", "one-hybrid fitness for binding NBS DNA": "≤ 0.2"}
{"variant": "ACYR", "one-hybrid fitness for binding NBS DNA": "≤ 0.2"}
{"variant": "AGAS", "one-hybrid fitness for binding NBS DNA": "≤ 0.2"}
{"variant": "RTPY", "one-hybrid fitness for binding NBS DNA": "≤ 0.2"}
{"variant": "GSKD", "one-hybrid fitness for binding NBS DNA": "≤ 0.2"}
{"variant": "VPIK", "one-hybrid fitness for binding NBS DNA": "≤ 0.2"}
{"variant": "NCVG", "one-hybrid fitness for binding NBS DNA": "≤ 0.2"}
{"variant": "HRLM", "one-hybrid fitness for binding NBS DNA": "≤ 0.2"}
{"variant": "RAPP", "one-hybrid fitness for binding NBS DNA": "≤ 0.2"}
{"variant": "QMND", "one-hybrid fitness for binding NBS DNA": "≤ 0.2"}
{"variant": "CAPV", "one-hybrid fitness for binding NBS DNA": "≤ 0.2"}
{"variant": "FGAF", "one-hybrid fitness for binding NBS DNA": "≤ 0.2"}
{"variant": "MFMG", "one-hybrid fitness for binding NBS DNA": "≤ 0.2"}
{"variant": "LGLM", "one-hybrid fitness for binding NBS DNA": "≤ 0.2"}
{"variant": "RLFH", "one-hybrid fitness for binding NBS DNA": "≤ 0.2"}
{"variant": "MKTK", "one-hybrid fitness for binding NBS DNA": "≤ 0.2"}
{"variant": "RHFK", "one-hybrid fitness for binding NBS DNA": "≤ 0.2"}
{"variant": "LWHT", "one-hybrid fitness for binding NBS DNA": "≤ 0.2"}
{"variant": "QWYT", "one-hybrid fitness for binding NBS DNA": "≤ 0.2"}
{"variant": "RASH", "one-hybrid fitness for binding NBS DNA": "≤ 0.2"}
{"variant": "QKHC", "one-hybrid fitness for binding NBS DNA": "≤ 0.2"}
{"variant": "APVY", "one-hybrid fitness for binding NBS DNA": "≤ 0.2"}
{"variant": "LKCV", "one-hybrid fitness for binding NBS DNA": "≤ 0.2"}
{"variant": "HRWH", "one-hybrid fitness for binding NBS DNA": "≤ 0.2"}
{"variant": "FEAS", "one-hybrid fitness for binding NBS DNA": "≤ 0.2"}
{"variant": "VYVL", "one-hybrid fitness for binding NBS DNA": "≤ 0.2"}
{"variant": "TFTF", "one-hybrid fitness for binding NBS DNA": "≤ 0.2"}
{"variant": "QVPD", "one-hybrid fitness for binding NBS DNA": "≤ 0.2"}
{"variant": "FNYI", "one-hybrid fitness for binding NBS DNA": "≤ 0.2"}
{"variant": "RHGA", "one-hybrid fitness for binding NBS DNA": "≤ 0.2"}
{"variant": "KYAK", "one-hybrid fitness for binding NBS DNA": "≤ 0.2"}
{"variant": "GSSF", "one-hybrid fitness for binding NBS DNA": "≤ 0.2"}
{"variant": "RDHQ", "one-hybrid fitness for binding NBS DNA": "≤ 0.2"}
{"variant": "LAFS", "one-hybrid fitness for binding NBS DNA": "≤ 0.2"}
{"variant": "RCAD", "one-hybrid fitness for binding NBS DNA": "≤ 0.2"}
{"variant": "YCTY", "one-hybrid fitness for binding NBS DNA": "≤ 0.2"}
{"variant": "PIGT", "one-hybrid fitness for binding NBS DNA": "≤ 0.2"}
{"variant": "PSPL", "one-hybrid fitness for binding NBS DNA": "≤ 0.2"}
{"variant": "ISLV", "one-hybrid fitness for binding NBS DNA": "≤ 0.2"}
{"variant": "LNHC", "one-hybrid fitness for binding NBS DNA": "≤ 0.2"}
{"variant": "LFTW", "one-hybrid fitness for binding NBS DNA": "≤ 0.2"}
{"variant": "SKSH", "one-hybrid fitness for binding NBS DNA": "≤ 0.2"}
{"variant": "YTYD", "one-hybrid fitness for binding NBS DNA": "≤ 0.2"}
{"variant": "AMSY", "one-hybrid fitness for binding NBS DNA": "≤ 0.2"}
{"variant": "NDRY", "one-hybrid fitness for binding NBS DNA": "≤ 0.2"}
{"variant": "GSMI", "one-hybrid fitness for binding NBS DNA": "≤ 0.2"}
{"variant": "ILYP", "one-hybrid fitness for binding NBS DNA": "≤ 0.2"}
{"variant": "GNWG", "one-hybrid fitness for binding NBS DNA": "≤ 0.2"}
{"variant": "NANF", "one-hybrid fitness for binding NBS DNA": "≤ 0.2"}
{"variant": "EYMT", "one-hybrid fitness for binding NBS DNA": "≤ 0.2"}
{"variant": "RRQT", "one-hybrid fitness for binding NBS DNA": 0.752}
{"variant": "MPYS", "one-hybrid fitness for binding NBS DNA": "≤ 0.2"}
{"variant": "HSIV", "one-hybrid fitness for binding NBS DNA": "≤ 0.2"}
{"variant": "AHQG", "one-hybrid fitness for binding NBS DNA": "≤ 0.2"}
{"variant": "CIKG", "one-hybrid fitness for binding NBS DNA": "≤ 0.2"}
{"variant": "RTYC", "one-hybrid fitness for binding NBS DNA": "≤ 0.2"}
{"variant": "NHHL", "one-hybrid fitness for binding NBS DNA": "≤ 0.2"}
{"variant": "ALYL", "one-hybrid fitness for binding NBS DNA": "≤ 0.2"}
{"variant": "PMPP", "one-hybrid fitness for binding NBS DNA": "≤ 0.2"}
{"variant": "VGWY", "one-hybrid fitness for binding NBS DNA": "≤ 0.2"}
{"variant": "QHSI", "one-hybrid fitness for binding NBS DNA": "≤ 0.2"}
{"variant": "HHGS", "one-hybrid fitness for binding NBS DNA": "≤ 0.2"}
{"variant": "PDNI", "one-hybrid fitness for binding NBS DNA": "≤ 0.2"}
{"variant": "LKKC", "one-hybrid fitness for binding NBS DNA": "≤ 0.2"}
{"variant": "YHNS", "one-hybrid fitness for binding NBS DNA": "≤ 0.2"}
{"variant": "LVMN", "one-hybrid fitness for binding NBS DNA": "≤ 0.2"}
{"variant": "VNNY", "one-hybrid fitness for binding NBS DNA": "≤ 0.2"}
{"variant": "FDLD", "one-hybrid fitness for binding NBS DNA": "≤ 0.2"}
{"variant": "WGDM", "one-hybrid fitness for binding NBS DNA": "≤ 0.2"}
{"variant": "LCSR", "one-hybrid fitness for binding NBS DNA": "≤ 0.2"}
{"variant": "GRRD", "one-hybrid fitness for binding NBS DNA": "≤ 0.2"}
{"variant": "ALLP", "one-hybrid fitness for binding NBS DNA": "≤ 0.2"}
{"variant": "TQTA", "one-hybrid fitness for binding NBS DNA": "≤ 0.2"}
{"variant": "MQWT", "one-hybrid fitness for binding NBS DNA": "≤ 0.2"}
{"variant": "RMIL", "one-hybrid fitness for binding NBS DNA": "≤ 0.2"}
{"variant": "NPPP", "one-hybrid fitness for binding NBS DNA": "≤ 0.2"}
{"variant": "MLYG", "one-hybrid fitness for binding NBS DNA": "≤ 0.2"}
{"variant": "NNNK", "one-hybrid fitness for binding NBS DNA": "≤ 0.2"}
{"variant": "VDEN", "one-hybrid fitness for binding NBS DNA": "≤ 0.2"}
{"variant": "ATLL", "one-hybrid fitness for binding NBS DNA": "≤ 0.2"}
{"variant": "THYP", "one-hybrid fitness for binding NBS DNA": "≤ 0.2"}
{"variant": "WRYR", "one-hybrid fitness for binding NBS DNA": "≤ 0.2"}
{"variant": "GNTR", "one-hybrid fitness for binding NBS DNA": "≤ 0.2"}
{"variant": "GRAH", "one-hybrid fitness for binding NBS DNA": "≤ 0.2"}
{"variant": "PRSG", "one-hybrid fitness for binding NBS DNA": "≤ 0.2"}
{"variant": "RPAR", "one-hybrid fitness for binding NBS DNA": "≤ 0.2"}
{"variant": "RFLY", "one-hybrid fitness for binding NBS DNA": "≤ 0.2"}
{"variant": "WWSD", "one-hybrid fitness for binding NBS DNA": "≤ 0.2"}
{"variant": "GAPC", "one-hybrid fitness for binding NBS DNA": "≤ 0.2"}
{"variant": "DGFC", "one-hybrid fitness for binding NBS DNA": "≤ 0.2"}
{"variant": "QHYR", "one-hybrid fitness for binding NBS DNA": 0.471}
{"variant": "QNLN", "one-hybrid fitness for binding NBS DNA": "≤ 0.2"}
{"variant": "SPKI", "one-hybrid fitness for binding NBS DNA": "≤ 0.2"}
{"variant": "HTRF", "one-hybrid fitness for binding NBS DNA": "≤ 0.2"}
{"variant": "APHR", "one-hybrid fitness for binding NBS DNA": "≤ 0.2"}
{"variant": "DNIS", "one-hybrid fitness for binding NBS DNA": "≤ 0.2"}
{"variant": "SNKA", "one-hybrid fitness for binding NBS DNA": "≤ 0.2"}
{"variant": "CTWP", "one-hybrid fitness for binding NBS DNA": "≤ 0.2"}
{"variant": "RCTD", "one-hybrid fitness for binding NBS DNA": "≤ 0.2"}
{"variant": "QPNT", "one-hybrid fitness for binding NBS DNA": "≤ 0.2"}
{"variant": "RRLA", "one-hybrid fitness for binding NBS DNA": 0.584}
{"variant": "SQIR", "one-hybrid fitness for binding NBS DNA": "≤ 0.2"}
